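The compound was tested at five concentrations on cells cultured in 96-well plates, with a 48-hour exposure period. GI50 is the concentration that inhibits growth by half.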 Calls of active or inactive are those of the source. Cut-off read from the data, not from the text of the source: active = GI50 up to about 1.1 µM and inactive = higher.
These molecules were tested on NCI-H322M (assay: NCI tumour cell line growth inhibition, 48 h).
With Cc1nc2ccncc2[nH]1 the GI50 was inactive: > 100 µM.
CC12CC(c3ccccc3O1)C(C(=O)Nc1cccc(F)c1)C(=O)N2 (stereo not given) was tested, and the GI50 was inactive: > 100 µM.
CN(C)NC(=O)/C(=C/c1ccc(Cl)cc1)NC(=O)c1ccccc1 was tested, and the GI50 was inactive: > 100 µM.
With C=CCn1c(=O)c(-c2ccccc2)c(O)c2ccccc21 the GI50 was inactive: > 100 µM.
In the case of C=CCC(CCC(C)=O)(C(=O)OCC)C(=O)OCC, the GI50 is reported as inactive: > 100 µM.
With COc1cc2c(cc1O)CC[C@@H]1C2CC[C@@]2(C)C1CC[C@@H]2O (stereo not given in full) the GI50 was inactive: 4.83 µM.
With Cc1ccc(S(=O)(=O)Oc2cc(S(=O)(=O)O)cc3cc(S(=O)(=O)O)cc(N)c23)cc1 the GI50 was inactive: > 100 µM.
With CCOC(=S)SSSC(=S)OCC the GI50 was inactive: > 100 µM.
In the case of NC1=Nc2cc(Cl)ccc2Sc2nc3ccccc3n21, the GI50 is reported as inactive: > 100 µM.
For Cc1ccccc1OC(C)C(=O)NN1C(=O)CSC1c1ccc(Cl)cc1 (stereo not given), the GI50 was inactive: 20.7 µM.
For Cn1cc(NC(=O)c2cc(NC(=O)CCCCCCCCCC(=O)Nc3cc(C(=O)Nc4cc(C(=O)NCCC(=N)N)n(C)c4)n(C)c3)cn2C)cc1C(=O)NCCC(=N)N, the GI50 was inactive: 20.1 µM.
COC(=O)C(CCCCN)NC(=O)C(CCCCN)NC(C)=O.Cc1ccc(C(=O)Nc2ccc(S(=O)(=O)O)c3cc(S(=O)(=O)O)cc(S(=O)(=O)O)c23)cc1NC(=O)c1cccc(NC(=O)Nc2cccc(C(=O)Nc3cc(C(=O)Nc4ccc(S(=O)(=O)O)c5cc(S(=O)(=O)O)cc(S(=O)(=O)O)c45)ccc3C)c2)c1 was tested, and the GI50 was inactive: > 50 µM.
With Cn1c(=O)cc(Nc2ccc(N)cc2)[nH]c1=O the GI50 was inactive: > 100 µM.
For COc1ccccc1OCC(COC(=O)Nc1ccc(C)cc1)OC(=O)Nc1ccc(C)cc1 (stereo not given), the GI50 was inactive: 46.2 µM.
For Cc1ccc(/C=N/Nc2ccc3ccccc3n2)s1, the GI50 was inactive: 14.6 µM.
COCC(=O)[C@]1(O)Cc2c(O)c3c(c(O)c2[C@@H](OC2CC(N)C(O)C(C)O2)C1)C(=O)c1c(OC)cccc1C3=O (stereo not given in full) was tested, and the GI50 was active: 0.143 µM.
For c1cc(C[S+]2CCCC2)sc1C[S+]1CCCC1, the GI50 was inactive: > 100 µM.
In the case of CCC(=O)OCOc1ccc(/C=C2\CCC(CN(C)C)C2=O)cc1 (stereo not given), the GI50 is reported as inactive: 16.7 µM.
With N#Cc1ccc(-c2nc3c(N)nc(-c4ccccc4)nc3o2)cc1 the GI50 was inactive: 51.4 µM.
With CC1=NC(=Cc2ccc(O)cc2)C(=O)N1n1c(-c2ccccc2)nc2ccccc2c1=O the GI50 was inactive: > 100 µM.
O=[As](O)(O)c1ccc2nc3cc([As](=O)(O)O)ccc3nc2c1 was tested, and the GI50 was inactive: > 100 µM.
CCOP(=O)(CC1OC(CO)C(O)C1O)OCC (stereo not given) was tested, and the GI50 was inactive: > 100 µM.
In the case of Nc1ccc(C(=O)NN2C(=O)C(Cl)C2c2cccc([N+](=O)[O-])c2)cc1 (stereo not given), the GI50 is reported as inactive: 15.3 µM.
For O=C(Nc1cc(Cl)c(Cl)cc1Cl)C(=O)C(C(=O)c1ccc2ccccc2c1)C1OC(=O)c2ccccc21 (stereo not given), the GI50 was inactive: 7.73 µM.
O=C1C(O)=C(C(C2=C(O)C(=O)c3ccccc3C2=O)c2ccc(Cl)cc2)C(=O)c2ccccc21 was tested, and the GI50 was inactive: 17.6 µM.
CCCCCCCCCCCC(=O)Oc1c(Cl)cc(Cl)c(OC(=O)C(=O)Oc2c(Cl)cc(Cl)c(OC(=O)CCCCCCCCCCC)c2Cl)c1Cl was tested, and the GI50 was inactive: > 100 µM.
CCCCCCCCCCCCCCCCCCNC(=O)C(N)Cc1ccc(OCc2ccccc2)cn1 (stereo not given) was tested, and the GI50 was inactive: 20.6 µM.
Nc1nc2c(=O)c3ccccc3sc2s1 was tested, and the GI50 was inactive: 68.7 µM.
O=C1C=CC(=O)c2c1ccc1c3ccccc3n(CCCCCCCCn3c4ccccc4c4ccc5c(c43)C(=O)C=CC5=O)c21 was tested, and the GI50 was inactive: > 100 µM.
For CN1C(=O)c2ccccc2OC12C=Cc1ccc(O)cc1O2 (stereo not given), the GI50 was inactive: 43.1 µM.
With CC1(CCC2C=CCC2)CCCNC1=S (stereo not given) the GI50 was inactive: > 10 µM.
For CC1=CC2C(C=C1)S(=O)(=O)N1CC21c1ccccc1 (stereo not given), the GI50 was inactive: > 100 µM.
For NS(=O)(=O)c1ccc(NC(=O)C2C(=O)C(=O)N(c3ccc(S(N)(=O)=O)cc3)C2=O)cc1 (stereo not given), the GI50 was inactive: > 100 µM.
With O=C1CCC2SC1CCC2=O the GI50 was inactive: > 100 µM.
With CC1OC(CC(=O)O)Cc2c(O)c3c(c(O)c21)C(=O)C=C(C1=CC(=O)c2c(O)c4c(c(O)c2C1=O)CC(CC(=O)O)OC4C)C3=O (stereo not given) the GI50 was inactive: 59.2 µM.
With C[C@@H](NC1CCC[C@H]1O)c1ccccc1 (stereo not given in full) the GI50 was inactive: > 100 µM.
CS[C@]12C(=O)C[C@@]3(C)[C@@H](CC[C@]3(O)C(=O)CO)[C@@H]1CCC1=CC(=O)CC[C@@]12C was tested, and the GI50 was inactive: > 100 µM.
Cc1cc(Cl)ccc1NC(=O)C(=O)C(C(=O)c1ccc2ccccc2c1)C1OC(=O)c2ccccc21 (stereo not given) was tested, and the GI50 was inactive: 8.39 µM.
CC(=O)c1cccc(NC(=O)/C(=N\NC(C)(C)C)c2c(O)c3ccccc3oc2=O)c1 was tested, and the GI50 was inactive: > 100 µM.
With O=C(CSc1nc2nncc-2c(O)[nH]1)c1ccc(Cl)cc1 the GI50 was inactive: > 100 µM.
For O=C(/C=C/c1ccc(O)cc1)NCCc1ccc(O)cc1 [N-P-COUMAROYL TYRAMINE], the GI50 was inactive: 10.2 µM.
In the case of Cc1ccc(C(=O)N/N=C(\N=N\c2ccc([N+](=O)[O-])cc2)c2ccc(N(CCC#N)CCC#N)cc2C)cc1, the GI50 is reported as inactive: > 100 µM.
In the case of COc1ccc(-c2c3c([nH]c(=S)c2C#N)CC(C)(C)CC3=O)cc1, the GI50 is reported as inactive: > 100 µM.
COC(=O)C1=C(C(=O)OC)C(C(=O)c2ccc(Br)cc2)N2N=C(c3ccc(Cl)cc3)C=CC12 (stereo not given) was tested, and the GI50 was inactive: > 100 µM.
For O=C(NC(=S)NC(=O)c1cc(O)c(O)c(O)c1)c1cc(O)c(O)c(O)c1, the GI50 was inactive: 21 µM.
With O/N=C1\C=Cc2nn(-c3ccccc3)nc2\C1=N/O the GI50 was inactive: 8.15 µM.
With O=C(O)CCC(/N=C(\C(=N\C(CCC(=O)O)C(=O)O)c1ccccc1)c1ccccc1)C(=O)O (stereo not given) the GI50 was inactive: > 100 µM.
For O=C(O)Cn1c(=O)[nH]c(=O)c2[nH]cnc21, the GI50 was inactive: > 100 µM.
For C=CCSC1=N/C(=C\c2ccco2)C(=O)N1CC=C, the GI50 was inactive: > 100 µM.
CN(/N=C(\C(=O)O)c1ccccc1)C1=NCCCN1 was tested, and the GI50 was inactive: > 100 µM.
With CN(C)C(=O)OC1=CC2CCC(C1)N2C (stereo not given) the GI50 was inactive: > 100 µM.
With CC(C)(C)OC(=O)NC(Cc1ccccc1)C(=O)N[C@H]1c2ccsc2/C(=N/O)[C@H]1O (stereo not given in full) the GI50 was inactive: > 100 µM.
With c1ccc2c(c1)c1ccccc1c1n[se]nc21 the GI50 was inactive: 81.7 µM.
For CC1CC/C(=C\c2ccc(F)cc2)C2=C1C(c1ccc(F)cc1)NC(=S)N2 (stereo not given), the GI50 was inactive: 97.3 µM.
In the case of CC12CCC(Br)C(C)(C)C1CC=C1C(=O)OCC1O2 (stereo not given), the GI50 is reported as inactive: 15.6 µM.
With N#Cc1nc(CCc2nc(C#N)c(N)o2)oc1N the GI50 was inactive: > 10 µM.
For NC1=Nc2ccccc2Sc2nncn21, the GI50 was inactive: > 100 µM.
In the case of O=C1OC(c2ccc(O)c(-c3ccccc3)c2)(c2ccc(O)c(-c3ccccc3)c2)c2c(Cl)c(Cl)c(Cl)c(Cl)c21, the GI50 is reported as inactive: > 100 µM.
O=C(ON=C1c2ccccc2C(Br)C(Br)c2ccccc21)c1cc([N+](=O)[O-])cc([N+](=O)[O-])c1 (stereo not given) was tested, and the GI50 was inactive: 25.2 µM.
For CC[C@]1(Cc2ccc(OC)c(OC)c2)C=[N+]([O-])O[C@H](OC2CCCCC2c2ccccc2)[C@@H]1OC(C)=O (stereo not given in full), the GI50 was inactive: 63.1 µM.
CCSc1nnc(-c2ccccc2)nc1Cc1ccc(OC)cc1 was tested, and the GI50 was inactive: > 100 µM.
In the case of O=c1c(Cc2ccc(Cl)cc2)nnc2sc(-c3ccc([N+](=O)[O-])cc3)nn12, the GI50 is reported as inactive: 25.3 µM.
In the case of Cc1c(C#N)c2nnn(-c3ccccc3)c(=O)n2c1-c1ccccc1, the GI50 is reported as inactive: 3.35 µM.
Clc1ncnc2c1ncn2CCCCCCCCCCCCn1cnc2c(Cl)ncnc21 was tested, and the GI50 was inactive: 13.3 µM.
For Cc1cc([N+](=O)[O-])ccc1Sc1c2ccccc2nc2ccccc12, the GI50 was inactive: > 100 µM.
With Nc1nc(N)c2c(Cl)c(CNc3ccc(Cl)c(Cl)c3)ccc2n1 the GI50 was active: 0.136 µM.
With CC(C)(C)c1cc(C2COC(=O)COCCOCC(=O)OCCOCCO2)cc(C(C)(C)C)c1O (stereo not given) the GI50 was inactive: 24.5 µM.
With COc1cccc(/C=N/NC(N)=O)c1O the GI50 was inactive: > 100 µM.
For COC(=O)[C@@H]1N2C(=S)N(c3ccccc3)C(=O)[C@H]2SC1(C)C, the GI50 was inactive: > 100 µM.
For CCOc1ccccc1NC(=O)C(=O)Cc1nc2ccccc2s1, the GI50 was inactive: > 100 µM.
For O=c1n(Cc2ccccc2)c(=O)n2c(=O)n(Cc3ccccc3)c(=O)n12, the GI50 was inactive: > 100 µM.
CSc1[nH]nc(N)c1C(=O)Nc1ccc(C)cc1 was tested, and the GI50 was inactive: 29 µM.
With O=C(CN1CCCCC1)N1CCc2c([nH]c3ccccc23)C1c1cccnc1 (stereo not given) the GI50 was inactive: > 100 µM.
COc1cc(C2C(C(=O)Nc3ccccc3C)=C(C)NC(C)=C2C(=O)Nc2ccccc2C)ccc1O was tested, and the GI50 was inactive: > 100 µM.
In the case of Cc1cccc2c1N(C(=O)/C=C\C(=O)O)C(c1c(C)[nH]c3ccccc13)C2 (stereo not given), the GI50 is reported as inactive: 39.9 µM.
With CC1(C(=O)O)CCC(C(=O)O)C(C)(C)O1 (stereo not given) the GI50 was inactive: > 100 µM.
For N#C/C(=C/NC(=S)NCc1ccccc1)C(N)=O, the GI50 was inactive: > 100 µM.
In the case of COc1ccc(C2c3cc4c(cc3OC(O)(CO)C2C(=O)O)OCO4)c(OC)c1OC.COc1ccc(C2c3cc4c(cc3OC3(O)COC(=O)C23)OCO4)c(OC)c1OC (stereo not given), the GI50 is reported as inactive: > 100 µM.
With COc1ccccc1NC(=O)O/N=C(/Cl)C(C)C the GI50 was inactive: 13.3 µM.
In the case of Cn1c2ccccc2c(=NNc2ccc(S(N)(=O)=O)cc2)c2ccccc21, the GI50 is reported as inactive: 24.7 µM.
For N#CC12CC3(CCC1CCC1(C2)OCCO1)OCCO3 (stereo not given), the GI50 was inactive: > 100 µM.
With O=C1CC(=O)N(c2ccccc2)N1/C(=C/c1ccccc1)c1ccccc1 the GI50 was inactive: 24.4 µM.
In the case of CC(C)NC(=O)CN1CCN(C2=CC(=O)c3c(O)ccc(O)c3C2=O)CC1, the GI50 is reported as inactive: 17.7 µM.
With COc1cc2c3c(c1OC)-c1ccccc1C(C(OC(C)=O)c1ccccc1)C3N(C)CC2 (stereo not given) the GI50 was inactive: > 100 µM.
In the case of CC(=O)C(C)C(=O)N1C(=O)N(C)C2(C)N(C)C(=O)NC12C (stereo not given), the GI50 is reported as inactive: > 100 µM.
With Cc1ccc(S(=O)(=O)NCCSCCSCCNS(=O)(=O)c2ccc(C)cc2)cc1 the GI50 was inactive: > 100 µM.
With COc1ccc2c(c1)CCc1c(-c3n[nH]c4c3CCc3cc(OC)ccc3-4)n[nH]c1-2 the GI50 was inactive: 54.3 µM.
O=C1CCCCC/C1=C\c1cccc(Cl)c1 was tested, and the GI50 was inactive: > 100 µM.
For COc1cccc(C2CC(C)=Nc3c(ccc4c3C(=O)c3ccccc3C4=O)N2)c1O (stereo not given), the GI50 was active: 1.08 µM.
For CC(C)O/C=C1\C(=O)C2(SCCS2)[C@H]2CCCC[C@@H]12, the GI50 was inactive: 38.1 µM.

Source: ChEMBL document CHEMBL1201862, “PubChem BioAssay data set” (2004)
